Experimental data as given in PubChem BioAssay AID2202238 (Ras Initiative Chemistry Research Team, Frederick National …, 2025).
The other results are listed elsewhere or left out. Further columns of the screen follow, without active or inactive calls.

Molecular target: GTPase KRas (Homo sapiens) (UniProt P01116)
Assay: Cysteine mutants labelled by reactive fragments (mass read-out) (AID 2202238)
Set-up: protein at 5 µM with 500 µM competing thiol for 1.5 h
Settings: KRAS G12D cysteine mutants, disulfide tethering, MALDI-TOF labeling, stronger effect = higher value, fragment at 500 µM
[1] = measured here: G60C mutant labeling
[2] = measured here: G75C mutant labeling
[3] = measured here: H94C mutant labeling
[4] = measured here: I36C mutant labeling
[5] = measured here: L120C mutant labeling
[6] = measured here: M67C mutant labeling
[7] = measured here: M72C mutant labeling
[8] = measured here: N26C mutant labeling
[9] = measured here: N86C mutant labeling
[10] = measured here: P121C mutant labeling
[11] = measured here: S122C mutant labeling
[12] = measured here: S136C mutant labeling

UniProt P01116, sequence (P01116 whole entry, looked up, the tested form may be a part): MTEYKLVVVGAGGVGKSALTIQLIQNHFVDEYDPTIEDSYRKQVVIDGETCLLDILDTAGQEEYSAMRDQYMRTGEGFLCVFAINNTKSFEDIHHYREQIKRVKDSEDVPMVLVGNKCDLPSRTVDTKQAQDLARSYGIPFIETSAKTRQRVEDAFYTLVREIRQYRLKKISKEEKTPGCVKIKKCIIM

| Compound | percent labeling [1] | percent labeling [2] | percent labeling [3] | percent labeling [4] | percent labeling [5] | percent labeling [6] | percent labeling [7] | percent labeling [8] | percent labeling [9] | percent labeling [10] | percent labeling [11] | percent labeling [12] |
| --- | --- | --- | --- | --- | --- | --- | --- | --- | --- | --- | --- | --- |
| Cc1ccccc1C(C(=O)NCCS)C1CCCC1 (stereo unspecified) | 47.2% | 11.8% | 15.3% | 10.5% | 34.4% | 15.3% | 32.4% | 28.1% | 11% | 13% | 11.8% | 36.4% |
| CC1(C)Oc2ccc(NC(=O)CCS)cc2O1 | – | 28% | 27.8% | 24.4% | 20.1% | 21.6% | 41.5% | – | 18.1% | 21.1% | 24.1% | 49.8% |
| O=C(NCCS)c1cc2ccc(Br)cn2c1 | 15.4% | 0% | 8.7% | 8.7% | 16.1% | 15.1% | 5.8% | 20% | 12.7% | 11.5% | 10% | 17.4% |
| O=C(CCS)NC1CC(=O)N(Cc2ccccc2)C1 (stereo unspecified) | – | 11.7% | 32.6% | 39% | 32.3% | 40.9% | 27.9% | – | 14.4% | 35.3% | 33.5% | 53.8% |
| O=C(CCS)NC1CCC(CO)(CO)CC1 | – | 0% | 25.1% | 29.7% | 20.8% | 29.1% | 8.2% | – | 11% | 25.9% | 30.6% | 38.6% |
| O=C(NCCS)c1ccccc1-c1ncc[nH]1 | 42.5% | 19.8% | 32.3% | 28.6% | 35.9% | 29.2% | 33.2% | 43.7% | 30.1% | 30.2% | 32.5% | 37.2% |
| O=C(CCS)Nc1cccc(-c2nc(C3CC3)no2)c1 | – | 6.7% | 13.9% | 18.3% | 20.2% | 10.5% | 29% | – | 15% | 14.6% | 10.9% | 24% |
| COc1cccc(-c2c[nH]cc2C(=O)NCCS)c1 | 45.2% | 19% | 35.7% | 16.1% | 40.7% | 32.6% | 56.1% | 33.1% | 25% | 25.1% | 20% | 31.9% |
| O=C(NCCS)C1CCC(=O)N(CC(F)(F)F)C1 (stereo unspecified) | 27% | 9.2% | 35.9% | 33.7% | 43.8% | 30.6% | 17.9% | 33.2% | 23.9% | 38.5% | 33.7% | 46.7% |
| COc1cc2nc(N3CCN(C(=O)CCS)CC3)nc(N)c2cc1OC | – | 11% | 13.8% | 23.9% | 12% | 15.8% | 20.3% | – | 6.9% | 13.4% | 8.5% | 34.2% |
| O=C(CCS)N1CCN(C(=O)c2ccc(F)cc2F)CC1 | – | 12.9% | 34.4% | 41.4% | 30.3% | 38.1% | 25.6% | – | 18.2% | 39.1% | 38% | 54% |
| O=C(CCc1cc(Br)ccc1F)NCCS | 55.9% | 26.7% | 31.1% | 19.5% | 28.2% | 27.4% | 49.9% | 34.6% | 24.9% | 26.1% | 18.4% | 30.4% |
| Cn1cc(Br)c(C(=O)NCCS)cc1=O | 27% | 8.8% | 24.2% | 20.6% | 30.4% | 25.5% | 16.6% | 32.2% | 27.7% | 25.5% | 28% | 35.3% |
| Cc1ccc(C(=O)NCCS)c(Cl)n1 | 39.9% | 19% | 32.8% | 33.6% | 29.9% | 36% | 30.7% | 37.2% | 31.2% | 34.7% | 34.2% | 52.2% |
| O=C(CCS)NCCc1nc(-c2ccccc2)no1 | – | 13.6% | 35.7% | 42.8% | 30.4% | 50.8% | 36% | – | 22.4% | 47.7% | 34.9% | 52.6% |
